Measurements taken from the supplement of paper PMC4604168 (melanoma cell lines).
This is one part of the list. Repeats are few or missing, and single values can be far off.

Tested on: RVH-421
Assay: cell count relative to DMSO control; melanoma cells; higher = more viable cells
Conditions: library dose: low library concentration; 72 h
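Further: cell number obtained by counting DAPI-stained nuclei in high-throughput microscope images with image analysis software, screen run in 1,536-well plates.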

SMILES	cell count [%]
Cc1cn(-c2cc(NC(=O)c3ccc(C)c(Nc4nccc(-c5cccnc5)n4)c3)cc(C(F)(F)F)c2)cn1 [nilotinib] + COC(=O)c1sccc1S(=O)(=O)Nc1ccc(Nc2ccccc2)cc1OC [GSK0660] (first compound 0.2 µM, partner dose 1 µM)	96.7
Cn1c(=O)n(-c2ccc(C(C)(C)C#N)cc2)c2c3cc(-c4cnc5ccccc5c4)ccc3ncc21 + CO[C@@H]1[C@H](N(C)C(=O)c2ccccc2)C[C@H]2O[C@]1(C)n1c3ccccc3c3c4c(c5c6ccccc6n2c5c31)C(=O)NC4 [Midostaurin] (first compound 0.004 µM, partner dose 0.08 µM)	84.4
Cc1cn(-c2cc(NC(=O)c3ccc(C)c(Nc4nccc(-c5cccnc5)n4)c3)cc(C(F)(F)F)c2)cn1 [nilotinib] + NC(=O)Nc1cc(-c2cccc(F)c2)sc1C(=O)N[C@H]1CCCNC1 [AZD7762] (first compound 0.2 µM, partner dose 0.02 µM)	119
COc1ccc(C2=N[C@@H](c3ccc(Cl)cc3)[C@@H](c3ccc(Cl)cc3)N2C(=O)N2CCNC(=O)C2)c(OC(C)C)c1 [Nutlin-3] + O=c1cc(-c2cccc3c2Sc2ccccc2S3)oc(N2CCOCC2)c1 [KU55933] (first compound 0.1 µM, partner dose 1 µM)	87.4
Cc1cn(-c2cc(NC(=O)c3ccc(C)c(Nc4nccc(-c5cccnc5)n4)c3)cc(C(F)(F)F)c2)cn1 [nilotinib] + O=S(=O)(c1ccccc1)N(CC(F)(F)F)c1ccc(C(O)(C(F)(F)F)C(F)(F)F)cc1 [T0901317] (first compound 0.2 µM, partner dose 1.4 µM)	82.1
Cc1cc(Nc2cc(N3CCN(C)CC3)nc(/C=C/c3ccccc3)n2)n[nH]1 + Cc1ccc(NC(=O)c2cccc(N(C)C)c2)cc1NC(=O)c1ccc(O)cc1 [ZM336372] (first compound 0.04 µM, partner dose 2 µM)	115
Cn1c(=O)n(-c2ccc(C(C)(C)C#N)cc2)c2c3cc(-c4cnc5ccccc5c4)ccc3ncc21 + c1cc(-c2cnn3cc(-c4ccc(OCCN5CCCCC5)cc4)cnc23)ccn1 [Dorsomorphin] (first compound 0.004 µM, partner dose 0.4 µM)	103
COc1ccc(C2=N[C@@H](c3ccc(Cl)cc3)[C@@H](c3ccc(Cl)cc3)N2C(=O)N2CCNC(=O)C2)c(OC(C)C)c1 [Nutlin-3] + Oc1nc(-c2ccc(C(F)(F)F)cc2)nc2c1CSCC2 [XAV939] (first compound 0.1 µM, partner dose 2 µM)	59.4
Cc1cc(Nc2cc(N3CCN(C)CC3)nc(/C=C/c3ccccc3)n2)n[nH]1 + CCN(CC)CCCCNc1ncc2cc(-c3cc(OC)cc(OC)c3)c(NC(=O)NC(C)(C)C)nc2n1 [PD173074] (first compound 0.04 µM, partner dose 0.1 µM)	75.1
Cc1cn(-c2cc(NC(=O)c3ccc(C)c(Nc4nccc(-c5cccnc5)n4)c3)cc(C(F)(F)F)c2)cn1 [nilotinib] + NCC(=O)Nc1ccc(-n2nc(C(F)(F)F)cc2-c2ccc3c(ccc4ccccc43)c2)cc1 [OSU03012] (first compound 0.2 µM, partner dose 1 µM)	87
Cc1cn(-c2cc(NC(=O)c3ccc(C)c(Nc4nccc(-c5cccnc5)n4)c3)cc(C(F)(F)F)c2)cn1 [nilotinib] + CO[C@@H]1[C@H](N(C)C(=O)c2ccccc2)C[C@H]2O[C@]1(C)n1c3ccccc3c3c4c(c5c6ccccc6n2c5c31)C(=O)NC4 [Midostaurin] (first compound 0.2 µM, partner dose 0.08 µM)	80.4
Cc1cc(Nc2cc(N3CCN(C)CC3)nc(/C=C/c3ccccc3)n2)n[nH]1 + COC(=O)c1sccc1S(=O)(=O)Nc1ccc(Nc2ccccc2)cc1OC [GSK0660] (first compound 0.04 µM, partner dose 1 µM)	72.5
COc1ccc(C2=N[C@@H](c3ccc(Cl)cc3)[C@@H](c3ccc(Cl)cc3)N2C(=O)N2CCNC(=O)C2)c(OC(C)C)c1 [Nutlin-3] + CC(C)CCN1c2nc(Nc3cc(F)c(O)c(F)c3)ncc2N(C)C(=O)C1C [BID1870] (first compound 0.1 µM, partner dose 0.2 µM)	68.5
COc1ccc(C2=N[C@@H](c3ccc(Cl)cc3)[C@@H](c3ccc(Cl)cc3)N2C(=O)N2CCNC(=O)C2)c(OC(C)C)c1 [Nutlin-3] + COc1ccc2c(c1)CCC1C2CCC2(C)C(NCCCCCCN3C(=O)C=CC3=O)CCC12 [U73122] (first compound 0.1 µM, partner dose 0.4 µM)	56.4
Cc1cc(Nc2cc(N3CCN(C)CC3)nc(/C=C/c3ccccc3)n2)n[nH]1 + Oc1nc(-c2ccc(C(F)(F)F)cc2)nc2c1CSCC2 [XAV939] (first compound 0.04 µM, partner dose 2 µM)	86.2
COc1ccc(C2=N[C@@H](c3ccc(Cl)cc3)[C@@H](c3ccc(Cl)cc3)N2C(=O)N2CCNC(=O)C2)c(OC(C)C)c1 [Nutlin-3] + CCc1ccc(CCOc2ccc(CC3SC(=O)NC3=O)cc2)nc1 [pioglitazone] (first compound 0.1 µM, partner dose 2 µM)	101
COc1ccc(C2=N[C@@H](c3ccc(Cl)cc3)[C@@H](c3ccc(Cl)cc3)N2C(=O)N2CCNC(=O)C2)c(OC(C)C)c1 [Nutlin-3] + O=C(CCCCCCC(=O)Nc1ccccc1)NO [vorinostat] (first compound 0.1 µM, partner dose 0.08 µM)	92.6
Cn1c(=O)n(-c2ccc(C(C)(C)C#N)cc2)c2c3cc(-c4cnc5ccccc5c4)ccc3ncc21 + Cn1cncc1[C@@](N)(c1ccc(Cl)cc1)c1ccc2c(c1)c(-c1cccc(Cl)c1)cc(=O)n2C [tipifarnib] (first compound 0.004 µM, partner dose 0.01 µM)	75.1
